PubChem BioAssay AID686978 (National Center for Advancing Translational Sciences (NCATS), 2013)
The campaign covered roughly 420,000 compounds. About 64,000 (15%) were called active. The inconclusive results got no clear call from the source; some entries with a clear call stand among them for comparison. Calls follow the shape of the dose curve; as a rule, active = well fitted inhibition curve with a large enough effect; inconclusive = small, poorly fitted or top-dose-only effect; inactive = flat fitted curve, though single readings scatter. Potencies of inconclusive entries are left out as doubtful fits. Some compounds were tested as several samples or in several runs, with calls that do not always agree.

test: qHTS for Inhibitors of human tyrosyl-DNA phosphodiesterase 1 (TDP1): qHTS in cells in absence of CPT; conditions: DT40 Tdp1-/- hTDP1 cells, no CPT, ATP luminescence, 48 h; activity change, negative = growth inhibition: at 46.2 µM (top of the series) unless noted; also: nearly all actives have a fitted effect of over 55% in size
Procedure, shortened: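 Readout: luminescence from CellTiter-Glo after 30 min in the dark at RT. Cells: DT40 Tdp1-/- with stable hTDP1, 400/well. Exposure: compounds alone, ≥48 hr, 37 °C.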
% is scaled to controls: 0 for no effect and ±100 for the full control effect; potency is read from the fitted curve at half-maximal effect; tags tell the direction and shape of the fitted curve.

| Structure (SMILES) | Potency | activity change, negative = growth inhibition |
| --- | --- | --- |
| Cc1nc(C(=O)Nc2ccccc2Cl)cc2c1[nH]c1ccccc12 | active: 6.51 µM |  |
| Cc1cc(C)n(CCCNC(=O)c2cc(COc3ccc(C)c(C)c3)on2)n1 | inconclusive [inhibitor, single point] |  |
| COc1ccc(S(=O)(=O)n2cccc2)cc1 |  | inactive: -4.15% |
| COc1ccc(C)cc1S(=O)(=O)N1CCCC(C(=O)N2CCN(c3ccccc3)CC2)C1 (stereo unspecified) |  | inactive: -18.4% |
| CC(=O)Nc1ccc(C(=O)N2CCCC(c3cc(C(=O)NCc4ccccc4)no3)C2)cc1 (stereo unspecified) | inconclusive [inhibitor, single point] |  |
| COc1ccc(NC(=O)CCn2c(=S)[nH]c3ccccc3c2=O)cc1OC |  | inactive: -0.903% |
| CC1(C(=O)NNC(=S)NCC2CCCO2)CC1(Cl)Cl (stereo unspecified) | inconclusive [inhibitor, single point] |  |
| CC(=O)N1CCCC1c1nc2ccccc2n1Cc1cccc(C)c1 (stereo unspecified) | inconclusive [inhibitor, single point] |  |
| COc1ccc(OCC(=O)NCc2ccc3c(c2)CCN3C(=O)c2cccc(C)c2)cc1 | active: 1.84 µM |  |
| CCn1c(SCC(=O)Nc2ccccc2N2CCCCC2)nc2c1c(=O)n(C)c(=O)n2C | active: 16.4 µM |  |
| CN(C)c1nc(N)nc2c1ncn2C1OC(CO)CC1O (stereo unspecified) | inconclusive [inhibitor, partial curve] |  |
| COc1ccccc1C(c1nnnn1CC1CCCO1)N1CCC(C(N)=O)CC1 (stereo unspecified) |  | inconclusive: -2.73% [inhibitor] |
| CCC(=O)N1CCN(C(=O)c2ccccc2)CC1 | inconclusive [inhibitor, single point] |  |
| CN1CCC(N(CCc2ccccc2)C(=O)CCC(=O)O)CC1 |  | inactive: -10.4% |
| O=C(c1ccccc1)N(c1ccccc1)c1ccccc1O | active: 16.4 µM |  |
| Cc1cccc(NC(=O)c2cccc(C(=O)Nc3cccc(C)c3C)n2)c1C |  | inactive: -7.12% |
| O=C(CCCn1c(=O)[nH]c2cc(Cl)ccc2c1=O)N1CCN(c2ccc([N+](=O)[O-])cc2)CC1 | inconclusive [inhibitor, full curve, poor fit] |  |
| C[n+]1ccc(C(c2c[nH]c3ccccc23)c2cc[n+](C)c3ccccc23)c2ccccc21 | active: 0.562 µM |  |
| CCOc1cc(OCC)cc(C(=O)NCCN2CCC(n3c(=O)[nH]c4ccccc43)CC2)c1 | inconclusive [inhibitor, single point] |  |
| Cc1ccc(C(=O)N2CCN(c3ccc(NC(=O)c4cccnc4)cc3)CC2)cc1 |  | inactive: -3.11% |
| C/C(=N\O)C(C)(C)Nc1ccc(Br)cc1 |  | inactive: -25.6% |
| CC(C)c1ccc(C2NC(=O)c3c(sc4c3CCN(C)C4)N2)cc1 (stereo unspecified) | inconclusive [inhibitor, single point] |  |
| Cc1cc(C(=O)Nc2ccccc2C(=O)O)c(C)o1 | inconclusive [inhibitor, partial curve] |  |
| COc1ccc(CC(=O)NC2CCSc3ccccc32)cc1OC (stereo unspecified) |  | inactive: -6.31% |
| CCOc1ccc(OCc2ccc(C(=O)N3CCCC3)o2)cc1 | inconclusive [inhibitor, partial curve] |  |
| COc1ccccc1C(=O)NNC(=O)c1cccc(F)c1 |  | inactive: -14.4% |

| Structure (SMILES) | Potency | activity change, negative = growth inhibition |
| --- | --- | --- |
| CCOc1ccccc1NC(=O)Cn1c(=O)n(-c2ccc(C)cc2)c(=O)c2c1cnn2C | inconclusive [inhibitor, single point] |  |
| CC(Sc1nccn1C)C(=O)Nc1ccccc1 (stereo unspecified) |  | inactive: 18.3% |
| O=C(Nc1ccccc1)c1cc(C2CCCN(C(=O)CCc3ccccc3)C2)on1 (stereo unspecified) | inconclusive [inhibitor, single point] |  |
| O=C(NCc1cccc(F)c1)c1cccc2c1C(=O)c1ccc(N3CCC(Cc4ccccc4)CC3)cc1S2(=O)=O | inconclusive [inhibitor, partial curve, poor fit] |  |
| O=C(Cn1c(=O)oc2cc(S(=O)(=O)N3CCCC3)ccc21)NCc1ccccn1 |  | inactive: -26% |
| CCCn1c(-c2cccnc2Cl)nc2cc(Cl)c(Cl)cc21 | inconclusive [inhibitor, single point] |  |
| O=[N+]([O-])c1ccccc1CNC1CCCc2ccccc21 (stereo unspecified) | inconclusive [inhibitor, partial curve, poor fit] |  |
| CN1C(=O)/C(=C/c2ccc(O)c([N+](=O)[O-])c2)N(C)C1=S | inconclusive [inhibitor, single point] |  |
| COc1ccc(NC2CCCN(C(=O)COc3ccc(Cl)cc3C)C2)cc1OC (stereo unspecified) | active: 25.9 µM |  |
| O=S(=O)(c1cccc(-c2nc3n(n2)Cc2ccccc2-3)c1)N1CCCCC1 | inconclusive [inhibitor, single point] |  |
| O=C(CS(=O)(=O)c1cn(CC(=O)N2CCCC2)c2ccccc12)Nc1ccccc1F |  | inactive: -3.78% |
| COc1ccccc1C1CCN(C(=O)C2CCCCC2)CC1 | inconclusive [inhibitor, partial curve] |  |
| COc1ccc(NC(=O)c2ccc(NC(=O)CCS(=O)(=O)c3cccs3)cc2)cc1Cl | inconclusive [inhibitor, partial curve, poor fit] |  |
| Clc1ccc(-c2nnc(SCc3ccon3)o2)c(Cl)c1 |  | inactive: -9.45% |
| CC(=O)Nc1cccc(C(=O)OCC(=O)NCc2cc(C)c(O)c(C)c2)c1 |  | inactive: 6.94% |
| Cc1cc(OCc2cc(C(=O)NC3CCC3)no2)cc(C)c1Cl | inconclusive [inhibitor, single point] |  |
| Cc1nc2cnc(Oc3ccccc3)nc2n(Cc2cccs2)c1=O | inconclusive [inhibitor, single point] |  |
| CCOC(=O)c1ccccc1NC(=O)c1c(N)n(C)c(=O)[nH]c1=O | inconclusive [inhibitor, single point] |  |
| Cc1cc(C)c(NC(=O)c2cccs2)c(C)c1NC(=O)c1cccs1 |  | inactive: -0.231% |
| CCCOc1ccc(C(=O)N2CCCC2)cc1OC |  | inactive: 2.77% |
| CCOC(=O)/C(=N\Nc1cc(C(F)(F)F)ccc1Cl)N(CC)CC |  | inactive: -12.4% |
| Cc1c(C#N)c(O)n(C)c(=O)c1N=Nc1ccc(S(N)(=O)=O)cc1 | active: 13 µM |  |
| COc1ccc(C(O)c2nc(-c3ccccc3C)cs2)cc1 (stereo unspecified) | inconclusive [inhibitor, single point] |  |
| CC1CCC(NC(=O)c2ccc3c(c2)S(=O)(=O)c2ccccc2C3=O)CC1 (stereo unspecified) | active: 14.6 µM |  |
| O=C(O)CC(C(=O)Nc1cccc(C(F)(F)F)c1)C1CCCO1 (stereo unspecified) |  | inactive: -2.29% |
| O=[N+]([O-])c1ccc(NCc2ccc(Cl)cc2)nc1 |  | inactive: -9.14% |

| Structure (SMILES) | Potency | activity change, negative = growth inhibition |
| --- | --- | --- |
| CN(C(=O)c1coc(=O)c2ccccc12)c1ccc(Br)cc1 |  | inactive: 2.68% |
| CCc1nnc(NC(=O)CSc2nccn2Cc2ccc(Cl)cc2)s1 |  | inactive: -28.7% |
| CC1(C)CC(=O)c2sc(NC(=O)c3ccco3)nc2C1 |  | inactive: -24.3% |
| Cc1onc(-c2ccccc2Cl)c1C(=O)OCc1nnc(-c2ccccc2)o1 | active: 23.1 µM |  |
| CCc1ccc(OCCNC(=O)c2ccccc2SCc2ccccc2)cc1 | active: 20.6 µM |  |
| O=C(NCCN1CCOCC1)c1ccc2c(c1)N(Cc1ccccc1)CCS2 | inconclusive [inhibitor, partial curve] |  |
| CCOC(=O)c1sc(N(Cc2ccccc2)C(=O)CCl)nc1C | active: 20.6 µM |  |
| O=C(CCc1ccccn1)NC1CCCc2c1cnn2-c1ccc(F)cc1F (stereo unspecified) | inconclusive [inhibitor, single point] |  |
| COn1c(SCc2cccnc2)nc2ccccc2c1=O | inconclusive [inhibitor, single point] |  |
| CCOc1ccc(NC(=O)CN(C)C(=O)CC2CCCC2)cc1OCC | inconclusive [inhibitor, single point] |  |
| CCCS(=O)(=O)NC(=O)C1(C)CCCN(C(=O)c2cc(-c3cccs3)oc2C)C1 (stereo unspecified) |  | inactive: -1.44% |
| CC(Sc1nnnn1-c1ccc(O)cc1)C(=O)NNC(=O)c1ccc(F)cc1 (stereo unspecified) | inconclusive [inhibitor, single point] |  |
| C=CCC(CC=C)(CNC(=O)C(=O)Nc1ccc(Br)cc1)c1ccc(OC)c(OC)c1 | inconclusive [inhibitor, partial curve] |  |
| CCOC(=O)c1cc(-c2nnc(SCC(=O)Nc3ccc(F)cc3)o2)c(C)nc1C | inconclusive [inhibitor, partial curve] |  |
| COC(=O)c1c(NC(C)=O)sc2c1CCCC2 | inconclusive [inhibitor, partial curve] |  |
| Clc1cccc(Nc2nc(-c3cccnc3)cs2)c1 | inconclusive [inhibitor, single point] |  |
| O=C(Nc1ccc(F)cc1F)C1CCN(C(=O)c2cnn(-c3ccccc3)c2-n2cccc2)CC1 | inconclusive [inhibitor, single point] |  |
| Cc1ccc(OCCCn2c(-c3ccc(Cl)cc3)nc3ccccc3c2=O)cc1C |  | inactive: -12.5% |
| COc1ccc(-c2csc(Nc3ccc(S(=O)(=O)Nc4cc(C)on4)cc3)n2)cc1C | inconclusive [inhibitor, single point] |  |
| CC(=O)NCCC(=O)Nc1cc(S(=O)(=O)N2CCCCC2)ccc1N1CCN(C)CC1 |  | inactive: -8.37% |
| CCN1CCCC1CNC(=O)c1ccc2c(c1)NC(=O)/C(=C\c1ccccc1F)S2 (stereo unspecified) | inconclusive [inhibitor, single point] |  |
| COCCn1c(SCc2nnc(-c3ccc(OC)c(OC)c3)o2)nnc1-c1ccncc1 | inconclusive [inhibitor, single point] |  |
| CCCN[C@H]1CCc2nc(N)sc2C1 | active: 16.8 µM |  |
| N#Cc1c2n(c3c(=S)nc[nH]c13)CCCCC2 | inconclusive [inhibitor, single point] |  |
